Drawing on PubChem BioAssay AID485344 (National Center for Advancing Translational Sciences (NCATS), 2010), this text covers inhibition for 61 compounds.

Out of some 340,000 compounds screened, about 6,900 (2%) were called active. Rule as the data show it: active = inhibition above about 30%; inactive = below that, where a call was filed. This is a selection; strong and weak results do not stand in their true shares. Entries without a call were filed so in the source.

A word on the inhibition: it is the relative decrease from the control value, in per cent.

Sequence of UniProt P14416 (P14416 whole entry, looked up): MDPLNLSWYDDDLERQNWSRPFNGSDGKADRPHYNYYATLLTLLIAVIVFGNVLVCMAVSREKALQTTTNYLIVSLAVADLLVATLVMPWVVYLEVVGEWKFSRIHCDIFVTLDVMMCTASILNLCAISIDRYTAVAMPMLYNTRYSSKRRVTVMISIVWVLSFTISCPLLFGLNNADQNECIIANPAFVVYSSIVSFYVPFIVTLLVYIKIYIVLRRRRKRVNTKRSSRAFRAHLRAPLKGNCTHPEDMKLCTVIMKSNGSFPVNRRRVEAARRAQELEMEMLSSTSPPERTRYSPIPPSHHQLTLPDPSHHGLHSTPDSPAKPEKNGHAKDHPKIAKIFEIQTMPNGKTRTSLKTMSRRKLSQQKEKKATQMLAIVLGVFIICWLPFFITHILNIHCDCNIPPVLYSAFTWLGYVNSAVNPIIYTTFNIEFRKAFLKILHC

The assay has as its target D(2) dopamine receptor (Homo sapiens) (UniProt P14416). Nature of the assay: HTS Assay for Allosteric Antagonists of the Human D2 Dopamine Receptor: Primary Screen for Antagonists. Also: 0% is about no effect. The note with it: HEK293 TREx D2 cells, calcium flux, dopamine EC80; at 10 µM; stronger effect = higher value. The method, boiled down:
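Inhibition of EC80 dopamine-driven calcium flux, recorded kinetically, defines activity here; cells are a tetracycline-induced HEK293 T-REx line expressing force-coupled D2.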
In general terms: A change in cytosolic calcium serves as a functional read-out for many receptors and channels.
Take `CN(C)c1ccc(CNS(=O)(=O)c2csc(C(N)=O)c2)cc1`: the inhibition was -10.8%.
As for `O=C(NCC(c1ccco1)S(=O)(=O)c1cccs1)c1ccc(C(F)(F)F)cc1` (stereo unspecified), the inhibition came to 7.88%.
As to `CCn1cc2nc(SCc3ccccc3)n(Cc3ccc(C)cc3)c(=O)c2n1`, the inhibition was -6.07%.
Under `COc1cccc(NC(=O)Nc2cc(-c3cn4cccnc4n3)ccc2OC)c1` stands -3.06%; under `COc1cccc(N2C(=O)CSC23C(=O)N(Cc2ccccc2F)c2ccccc23)c1` (stereo unspecified), 2.19%; under `Cc1cccc(NC(=O)C2CCN(S(=O)(=O)c3c(C)noc3/C=C/c3ccco3)CC2)c1C`, -3.34%.
On to `COc1ccc(-c2nc(SCCOc3cc(C)ccc3C(C)C)n3[nH]c(=O)cc3n2)cc1`, for which the inhibition is -1.26%.
Under `COc1ccc2c(CNCCc3ccccc3OC)c(C(=O)O)n(Cc3ccc(F)cc3Cl)c2c1` stands -15.2%; under `CSc1cccc(NC(=O)N2CCN(S(=O)(=O)c3ccc4c(ccn4C)c3)CC2)c1`, 23.2%.
For `COc1ccc(C2=NS(=O)(=O)N(C)C(C(=O)NC(C)c3ccccc3)=C2)cc1OC` (stereo unspecified) the value was 22.9%.
With `O=C(CSc1nc(-c2ccccc2)no1)N1CCN(c2ccc(F)cc2)CC1`, the inhibition is -3.38%.
As to `CC1=C(C(=O)OC2CCCC2)C(c2ccc(Cl)cc2)CC(=O)N1` (stereo unspecified), the inhibition stood at 0.463%.
Turning to `Cc1cc(C)cc(NC(=O)CN(c2cccc(C)c2C)S(=O)(=O)c2ccccc2)c1`, the inhibition was -5.48%.
Consider `Cc1cc2c(cc1S(=O)(=O)CCC(=O)N(C)Cc1ccccc1)OCC(=O)N2`, for which the inhibition was found to be 13.2%.
Regarding `CCOc1cccc(C2c3[nH]c4ccccc4c3CCN2C(=O)Cc2cccc(OCC)c2OCC)c1` (stereo unspecified), the inhibition stood at 1.52%.
Under `CC1CCc2nc(NC(=O)Cc3ccc(Cl)cc3)sc2C1` (stereo unspecified) stands -18.8%; under `O=C(c1n[nH]c2ccccc12)N1CCOCC1`, active: 38.5%; under `C#Cc1ccc(CN2CCC(Oc3ccc(C(=O)NCc4ccccn4)cc3)CC2)cc1`, active: 36.4%.
For `CCOC(=O)C1=C(C)NC(=S)N(C(C)=O)C1c1ccccc1` (stereo unspecified) the value was active: 32.1%; for `Cc1cc(C)cc(NC(=O)c2cc3c(=O)n(Cc4ccco4)ccc3nc2C)c1`, 4.85%; for `O=C(OCC1CCCO1)c1ccc2c(c1)N(Cc1cccc(F)c1)C(=O)c1ccccc1S2(=O)=O` (stereo unspecified), -3.53%.
In the case of `Cc1cc(-c2ccc(C)c(S(=O)(=O)NCCCN3CCN(c4ccccc4)CC3)c2)on1`, the inhibition is active: 73.4%.
Under `CCC(=O)N1CCc2cc(Br)cc(S(=O)(=O)N3CCN(c4cccc(Cl)c4)CC3)c21` stands 6.21%; under `Cc1nc2c(-c3ccc(F)cc3)c(C)nn2c(C)c1CCC(=O)NCc1cccc(Cl)c1`, 24.2%; under `COc1cccc(CNC(=O)c2ccc3c(c2)sc2nc(-c4ccccc4)cn23)c1OC`, 7.21%.
Take `CCOc1ccccc1CNC(=O)c1cc2oc3ccccc3c2n1CC`: the inhibition was -12.9%.
For `O=c1[nH]c2ccc(S(=O)(=O)Nc3cc(Cl)ccc3O)cc2o1` the value was 6.77%.
Under `Cc1ccc(-c2nc3scc(CCNS(=O)(=O)c4c(C)noc4C)n3n2)cc1` stands -18.3%.
Take `COc1cc(NC(=O)CCCN2C(=O)CCn3nc(-c4cn(C)c5ccccc45)cc32)cc(OC)c1`: the inhibition amounted to 3.78%.
As for `Fc1ccc(Nc2nc(-c3ccc(F)cc3)c3c(n2)-c2ccccc2OC3)cc1`, the inhibition stood at 26.7%.
On to `O=C(c1cnc(N2CCCCC2)c2ccccc12)N1CCN(c2ccc(F)cc2)CC1`, for which the inhibition came out at 18.3%.
Under `COc1cccc(C(=O)Nc2ccc3nc(SCC(=O)N4CCc5ccccc54)sc3c2)c1` stands -23.7%; under `Cc1sc2c(c1C)c(=O)n(-c1ccc(Cl)cc1)c(=O)n2CC(=O)c1ccccc1`, -15.6%; under `Cc1ccc(-n2ncc(C(=O)N(C)Cc3ccccc3)c2-n2cccc2)cc1`, 8.53%.
For the compound `Cc1ccccc1NC(=O)c1sc(Cl)nc1-c1ccccc1`, the inhibition is active: 30.7%.
In the case of `O=C(c1ccco1)N1CCN(CC2CC3C=CC2C3)CC1` (stereo unspecified), the inhibition is active: 83.8%.
For `CC(CNC(=O)c1cc2ccccn2n1)c1ccccc1` (stereo unspecified) the value was 2.55%.
`COc1ccc(Cl)cc1NC(=O)c1cc2nc(-c3ccc(C)cc3)cc(C(F)(F)F)n2n1`: the inhibition is -13.3%.
Under `Cc1cc(Br)ccc1NC(=O)C(NS(=O)(=O)c1cccs1)c1ccccc1` (stereo unspecified) stands -6.93%; under `Cc1ccc(S(=O)(=O)Oc2ccccc2N2C(=O)C3CC=CCC3C2=O)cc1` (stereo unspecified), active: 40.4%; under `CCOc1ccc(N2CC(C(=O)Nc3ccccc3F)CC2=O)cc1` (stereo unspecified), active: 33.7%.
For `NS(=O)(=O)c1ccc(CCNC(=O)CCn2c(=O)c3cccn3c3cccnc32)cc1` the value was -8.3%; for `Cc1ccc(-c2cn3c(n2)sc2cc(C(=O)NC4CCCCC4)ccc23)cc1`, 0.791%; for `Cc1ccc(NC(=O)/C=C/c2cccc(C(F)(F)F)c2)cc1`, active: 68.5%.
As for `COc1ccc(CCNC(=O)CCn2c(=O)c3cccn3c3ccc(F)cc32)cc1OC`, the inhibition amounted to 11.5%.
Under `CCc1cc(C(=O)NCC(c2cccs2)N2CCOCC2)sc1C` (stereo unspecified) stands active: 31.4%; under `CCOC(=O)C1=C(CN2CCCCC2)NC(=O)NC1c1ccc(OC)cc1` (stereo unspecified), -2.67%; under `Cc1cccc(NC(=O)c2ccc(F)c(S(=O)(=O)N3CCN(c4ccc(F)cc4)CC3)c2)c1`, 8.02%.
Under `CC(=O)c1c(OCC(=O)O)ccc2c(C)cc(=O)oc12` stands active: 46.8%; under `Cc1ccc2nc(N(Cc3cccnc3)C(=O)CCc3ccccc3)sc2c1`, 26.5%; under `Clc1c(Cl)c(Cl)c2n[nH]nc2c1Cl`, active: 38.1%.
For the compound `CC(=O)c1ccc(NC(=O)c2nn(C)c3c2CS(=O)(=O)c2ccccc2-3)cc1`, the inhibition was 23.1%.
As to `COc1ccc(-c2nc3n(n2)C(c2cccc(C)c2)C(C(N)=O)=C(C)N3)cc1OC` (stereo unspecified), the inhibition was 8.27%.
As for `Cc1cc(-c2ccc(C)c(S(=O)(=O)N(C(C)C)C3CCCCC3)c2)on1`, the inhibition was -0.274%.
Under `CCOC(=O)c1ccc(CN(Cc2ccc(Cl)cc2Cl)S(=O)(=O)c2cccc(Cl)c2)cc1` stands 3.46%; under `CC(=O)Nc1cccc(C(=O)/C=C/c2ccc(N(C)C)cc2)c1`, active: 35%; under `CC1(C)O[C@H]2[C@@H](O1)[C@@H](C(=O)Nc1cc(F)ccc1F)O[C@@H]1OC(C)(C)O[C@@H]12`, 2.66%.
In the case of `O=C(c1cc2ccccc2o1)N1CCN(CCOc2ccccc2)CC1`, the inhibition was active: 96.2%.
Under `O=C(O)CCSc1nnc(-c2ccc(Cl)cc2Cl)o1` stands 1.16%.
Take `Cc1ccc(-c2cn3c(n2)sc2cc(C(=O)NC4CCCCCC4)ccc23)c(C)c1`: the inhibition turned out to be 5.29%.
For the compound `Cc1oc2c(c(C)cc3oc(=O)c(CC(=O)NCCc4ccc(Cl)cc4)c(C)c32)c1C`, the inhibition was -9.83%.
